Results taken from the supplement of paper PMC3334620.
Whole data set: some 33,000 sequences, median “E-score (-0.5 to 0.5)” near -0.012, cut for the highest 2% near 0.27. This is one part of the list.

Target: T1, Vhr1 (UniProt P40522)
T1 sequence: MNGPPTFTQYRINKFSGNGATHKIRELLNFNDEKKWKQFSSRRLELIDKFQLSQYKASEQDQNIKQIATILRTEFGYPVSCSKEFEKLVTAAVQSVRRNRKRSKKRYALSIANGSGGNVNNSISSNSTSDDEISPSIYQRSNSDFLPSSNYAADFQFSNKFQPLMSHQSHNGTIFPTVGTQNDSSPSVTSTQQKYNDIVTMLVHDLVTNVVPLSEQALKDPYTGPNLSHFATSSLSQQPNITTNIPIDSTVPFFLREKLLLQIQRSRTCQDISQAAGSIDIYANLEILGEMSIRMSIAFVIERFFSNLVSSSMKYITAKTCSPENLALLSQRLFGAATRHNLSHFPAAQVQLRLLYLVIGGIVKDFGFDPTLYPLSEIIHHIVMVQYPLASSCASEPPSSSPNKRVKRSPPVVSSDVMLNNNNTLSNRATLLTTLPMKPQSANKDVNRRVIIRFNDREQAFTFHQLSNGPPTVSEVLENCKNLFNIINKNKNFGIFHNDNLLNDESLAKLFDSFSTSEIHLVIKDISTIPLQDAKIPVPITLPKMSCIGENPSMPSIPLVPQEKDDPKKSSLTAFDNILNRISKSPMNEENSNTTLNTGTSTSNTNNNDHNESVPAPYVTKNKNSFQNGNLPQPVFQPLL
Assay: PBM E-score (8-mer binding enrichment) (E-score (-0.5 to 0.5)); higher = stronger / more preferred TF binding; most listed sequences are background and not binding sites
Details: protein concentration: 200 nM; construct: GST-full length
In short: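 PURExpress in vitro transcription/translation supplied GST-tagged yeast transcription factors, either full-length or DNA-binding domain. Applied at about 100-200 nM to universal all-10-mer Agilent arrays double-stranded by primer extension, the bound protein was detected with fluorescent anti-GST. E-scores, modified Wilcoxon-Mann-Whitney statistics, were given by the Universal PBM Analysis Suite to ungapped eight-base words pooled with their reverse complements after masliner normalisation.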

| Sequence | PBM E-score |
| --- | --- |
| ATTGCAAA | -0.0581 |
| CGTTAATA | 0.0862 |
| ATTAAGTA | -0.0497 |
| GGGACAAC | -0.119 |
| CGGTTAGC | -0.161 |
| TATGACAA | 0.0461 |
| CAATCAGG | 0.0706 |
| GCCGGCCC | -0.0467 |
| GACTGTCC | 0.0278 |
| CAAGCTTA | -0.0834 |
| GGGAAAAC | -0.167 |
| ACATCTGC | 0.0724 |
| GGTGTCGA | 0.249 |
| CTGAGGAC | -0.209 |
| ATCGAACG | -0.0108 |
| AAATATGA | 0.247 |
| ATGACGCC | -0.145 |
| ACCTACCT | -0.0343 |
| CACGGTTC | 0.0342 |
| CCGAATTA | -0.188 |
| AAGCACCC | -0.2 |
| CATAATCC | 0.105 |

| Sequence | PBM E-score |
| --- | --- |
| AGAACAGG | -0.121 |
| TTGTTAAA | -0.23 |
| GCGCAGTA | -0.0752 |
| GATCGTCC | -0.0174 |
| ACTACGTC | -0.0905 |
| CTTGCCCC | -0.215 |
| ATATCTTC | 0.11 |
| GAATGGGA | -0.109 |
| AAGGAAAA | -0.11 |
| CCAGTATC | 0.0224 |
| AAGGCGGC | -0.0722 |
| AGGGCAAT | -0.095 |
| ACAACGCG | 0.0626 |
| GAGTGTAA | 0.0325 |
| AGGGAACC | 0.0115 |
| CGATCCTA | -0.0309 |
| GAGCTCGC | 0.114 |
| ACCAGATC | 0.0548 |
| CATGACCA | 0.138 |
| ATAATCAT | 0.389 |
| CCCGTGCG | 0.111 |
| GGCTAGCA | -0.0392 |

| Sequence | PBM E-score |
| --- | --- |
| AACTTAAT | -0.0399 |
| ACATAGTA | 0.188 |
| AACATATG | -0.0364 |
| AGGGTAAA | -0.0504 |
| CCAATCAA | -0.0986 |
| CTATGCGA | -0.00889 |
| CCTTGAGA | -0.0758 |
| CCCCACTA | 0.0338 |
| CAGCATAC | -0.0578 |
| GGGAATGA | 0.169 |
| GAGGTGCC | -0.276 |
| GCCACTTA | -0.0276 |
| ATCTATTG | 0.0986 |
| TACGACTA | 0.263 |
| AGACGCGG | -0.0378 |
| GAGTTACC | 0.103 |
| ACGGTTCA | -0.0333 |
| ACGGGCTC | -0.214 |
| AGGCACAA | -0.141 |
| AGAGATCT | -0.0304 |
| GAACCGTC | -0.0732 |
| CAGAGCTC | -0.281 |

| Sequence | PBM E-score |
| --- | --- |
| GCGCGACA | 0.061 |
| GCACCAAC | 0.0192 |
| TACGAACA | -0.0104 |
| AAGCCTCT | -0.177 |
| AAGGTGAG | 0.00362 |
| AAGCTGCA | -0.00033 |
| CAAATTGA | -0.124 |
| CCCGCAAC | 0.077 |
| TAGATGAA | -0.0839 |
| ACGCTAGT | -0.0378 |
| CGGTGGCC | 0.0237 |
| AAAAACTG | -0.193 |
| CGGCAGGA | -0.297 |
| GAGGCTAA | -0.136 |
| CAACCTCA | -0.126 |
| CGGAAGAA | -0.183 |
| CTACTGCC | -0.196 |
| GCCCTTGA | -0.129 |
| CCTTGTGA | 0.0709 |
| CGCTGCCC | -0.106 |
